From ChEMBL document CHEMBL4888484, “Replenishing the malaria drug discovery pipeline: Screening and hit evaluation of the MMV Hit Generation Library 1 (HGL1) against asexual blood stage Plasmodium falciparum ,using a nano luciferase reporter read-out” (2022) come the findings set out here.

In all, about 150,000 compounds went through this assay and about 540 (0.36%) showed an effect of 50% or more. The list shows a part of the results.

What is called % Inhibition is the drop in the measured response relative to a control, in per cent.

The subject of this test is Plasmodium falciparum. Put plainly: Primary screen in NF54 nanoGlo assay, in single point, at 2uM, 72h; a lower Z score goes with more inhibition. The format is functional, Erythrocyte. Particulars: timepoint 72 hour.
As to `Fc1ccc(OCc2nc([C@H]3CCOC3)no2)c(F)c1`, the “% Inhibition” value is recorded as -2% and the Z score was determined as 0.23.
The like results for `COCc1cccc(C(=O)N2C[C@]3(C)C[C@H]2CC(C)(C)C3)n1` were, in that order, -15% and 1.57.
The matching figures for `Cc1cc(-n2cnnn2)cc(C)c1S(=O)(=O)N1CCc2ccccc21`: -2% and 0.28.
On to `O=C(NCc1nc(C2CC2)no1)N1CCC[C@H](CN2CCOCC2)C1`, for which the “% Inhibition” value stood at 4% and the Z score is -0.42.
The like results for `C[C@@H]1CCC[C@H](C)N1CC(=O)NCCc1cnn[nH]1` were, in that order, -5% and 0.7.
With `O=C(NCC1([C@H](O)c2ccccc2)CC1)c1cc(O)ccc1C(F)(F)F`, the “% Inhibition” value was -10% and the Z score is given as 1.61.
The like results for `NC(=O)c1cncc(N[C@@H]2COCC[C@@H]2Oc2ccc(F)cc2)n1` were, in that order, -2% and 0.31.
Turning to `Cc1ccc(NC[C@H]2CCN(CCn3cccn3)C2)nc1`, the “% Inhibition” value was determined as 6% and the Z score is -1.02.
The matching figures for `COC(C)(C)C[C@H](C)NCc1cccnc1N`: -6% and 1.23.
The matching figures for `Cc1ccc(NC(=O)c2cn(-c3cc(-c4nc(C5CC5)no4)ccn3)cn2)cc1C`: -9% and 1.22.
As to `O=C(CN1C(=O)COc2ccc(Cl)cc21)Nc1nncs1`, the “% Inhibition” value was -10% and the Z score is reported as 1.12.
The like results for `Cc1nnc(CN(C)CCn2ccnc2C)s1` were, in that order, -2% and 0.32.
The matching figures for `Cc1cccc(C2CC(C(=O)Nc3ccccc3)CN(Cc3cccc(F)c3)C2)c1` (stereo unspecified): -2% and 0.27.
The matching figures for `Cc1ccc(-n2cnnc2)c(C(=O)N2CC[C@H]2C2CC2)c1`: -10% and 1.5.
As to `CC(C)CS(=O)(=O)C1CN(C(=O)c2nc3ccccc3s2)C1`, the “% Inhibition” value is given as -9% and the Z score is 1.52.
For the molecule `CC(=O)N1CCC(c2ncnn2-c2ccc(C(F)(F)F)cc2)CC1`, the “% Inhibition” value is reported as -7% and the Z score is reported as 0.91.
The matching figures for `CC(C)C[C@H]1CCN(C(=O)c2cc3ncccn3n2)C1`: -14% and 2.16.
The matching figures for `CCc1ncc(NC(=O)N(CCO)C2CCCCC2)cn1`: -6% and 0.84.
The matching figures for `N#Cc1ncn(Cc2nc3ccccc3c(=O)[nH]2)n1`: -8% and 1.49.
Regarding `C[C@H]1CNC(=O)N1c1cccc(NC(=O)c2scnc2C2CC2)c1`, the “% Inhibition” value is -13% and the Z score is recorded as 2.01.
For `COc1ccc(CNC(=O)c2nn(-c3ccccc3)c3ccccc3c2=O)cc1`, the “% Inhibition” value is -14% and the Z score is 1.89.
In the case of `COC1(C)CC(Nc2nn3cc(C)nc3s2)C1(C)C` (stereo unspecified), the “% Inhibition” value is on record as -10% and the Z score came out at 1.37.
The matching figures for `CC(C)c1nc(CC(=O)Nc2cccnc2)cs1`: 6% and -0.65.
The like results for `Cc1nc(C(=O)N2CCOC3CC(N(C)C)CCC32)nn1-c1ccc(Cl)cc1` (stereo unspecified) were, in that order, 2% and -0.26.
The like results for `Cn1c(CN2CC[C@H](NC(=O)c3cnccn3)[C@@H](O)C2)cc2ccccc21` were, in that order, -6% and 0.84.
For the molecule `COc1ncccc1C(=O)NC[C@H](O)COc1ccc(F)cc1`, the “% Inhibition” value was -8% and the Z score stood at 1.28.
The like results for `NC(=O)CC1CCCCN1c1ncnc2c1ncn2CC1(O)CCOC1` (stereo unspecified) were, in that order, -21% and 2.76.
Turning to `O=C1c2ccc(C(c3ccc4c(c3)C(=O)N(c3ccc(Oc5ccccc5)cc3)C4=O)(C(F)(F)F)C(F)(F)F)cc2C(=O)N1c1ccc(Oc2ccccc2)cc1`, the “% Inhibition” value is recorded as -9% and the Z score amounted to 1.22.
`Cc1noc(C)c1C1CCCN1C(=O)NCC1CCCO1` (stereo unspecified): the “% Inhibition” value is -5% and the Z score is on record as 0.71.
The like results for `Cc1cc(NC(=O)N[C@H]2C[C@@H](OC(C)C)C2)no1` were, in that order, 6% and -0.76.
The matching figures for `NC(=O)c1cccc(C(=O)OC[C@H]2CCN(c3ccccc3)C2)c1`: -14% and 2.03.
The like results for `Cc1cnc(C2CCC2)n1CCNC(=O)CN1CCOCC1` were, in that order, -4% and 0.5.
In the case of `Cc1csc(Cl)c1NC(=O)NCc1ccccc1CC(F)(F)F`, the “% Inhibition” value is -5% and the Z score amounted to 1.06.
The like results for `O=C(N1CCCC(Nc2cccc(Br)c2)C1)C1(O)CCOC1` (stereo unspecified) were, in that order, 1% and -0.15.
The like results for `O=C1C2N=NN(Cc3nc(-c4ccccc4)no3)C2C(=O)N1c1cccc(Cl)c1` (stereo unspecified) were, in that order, -2% and 0.23.
The matching figures for `OC1CCC1NCc1cc(F)cc(F)c1` (stereo unspecified): -3% and 0.32.
`Cc1nc(NC(=O)C[C@H]2CCS(=O)(=O)C2)sc1C`: the “% Inhibition” value was -11% and the Z score came out at 1.51.
The matching figures for `CCOC1CC(Nc2ccc3nnnn3n2)C12CCCCC2` (stereo unspecified): -15% and 2.01.
For `CCC1CCCCC1OCC(=O)Nc1cc(N(C)C)ncn1` (stereo unspecified), the “% Inhibition” value is recorded as -14% and the Z score worked out at 2.25.
The like results for `CC(=O)N1CCN(C(=O)c2cccc(Cl)c2Cl)[C@H]2CS(=O)(=O)C[C@H]21` were, in that order, -3% and 0.29.
For the molecule `Cc1[nH]nc(-c2ccccc2)c1NC(=O)COc1ccc(Cl)cc1`, the “% Inhibition” value is on record as -13% and the Z score turned out to be 2.44.
Consider `Cc1cccc(C(=O)N2CCCCCCN(C)C(=O)[C@@H]3CCC[C@@H]32)c1`, for which the “% Inhibition” value is -18% and the Z score came out at 2.35.
The like results for `CCCN(CCC)/C(=N/S(=O)(=O)c1ccccc1)C(F)(F)F` were, in that order, -8% and 0.99.
